Experimental data reported in PubChem BioAssay AID1452 (National Center for Advancing Translational Sciences (NCATS), 2008).
The campaign covered roughly 150,000 compounds. About 190 (0.13%) were called active. This list was built around the results that the source calls inconclusive (neither active nor inactive); the mix of calls is not that of the screen. Calls follow the shape of the dose curve; as a rule, active = well fitted inhibition curve with a large enough effect; inconclusive = small, poorly fitted or top-dose-only effect; inactive = flat fitted curve, though single readings scatter. A potency beside an inconclusive call is a rough fit, not a confirmed value.

These molecules were tested against Polyunsaturated fatty acid lipoxygenase ALOX12 (Homo sapiens) (UniProt P18054) (assay: qHTS Assay for Inhibitors of 12-hLO (12-human lipoxygenase)). Conditions: purified 12-hLO, xylenol orange hydroperoxide absorbance; series mostly up to 57.1 µM; activity change, negative = inhibition: at the top concentration.
Chain of UniProt P18054 (P18054 whole entry, looked up): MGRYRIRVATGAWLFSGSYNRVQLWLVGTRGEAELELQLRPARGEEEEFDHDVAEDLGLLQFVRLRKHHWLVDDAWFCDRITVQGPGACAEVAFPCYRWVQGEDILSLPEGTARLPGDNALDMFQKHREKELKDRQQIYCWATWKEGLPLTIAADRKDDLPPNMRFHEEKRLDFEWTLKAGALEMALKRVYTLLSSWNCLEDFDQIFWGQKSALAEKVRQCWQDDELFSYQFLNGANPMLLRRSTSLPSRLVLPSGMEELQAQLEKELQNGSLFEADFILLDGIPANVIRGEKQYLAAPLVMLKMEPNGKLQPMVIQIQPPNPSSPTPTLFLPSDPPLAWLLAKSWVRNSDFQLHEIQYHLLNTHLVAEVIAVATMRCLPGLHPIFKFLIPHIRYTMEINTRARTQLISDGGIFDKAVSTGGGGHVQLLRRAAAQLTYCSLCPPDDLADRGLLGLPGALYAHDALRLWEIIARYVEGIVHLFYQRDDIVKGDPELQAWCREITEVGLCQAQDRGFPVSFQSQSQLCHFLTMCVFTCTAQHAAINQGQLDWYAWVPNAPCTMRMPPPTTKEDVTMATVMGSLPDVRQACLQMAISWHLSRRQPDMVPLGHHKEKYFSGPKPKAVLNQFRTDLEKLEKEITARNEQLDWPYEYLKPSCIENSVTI
How it was run: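 Hydroperoxide formation by human 12-lipoxygenase from 40 uM arachidonic acid was followed colorimetrically via ferric-xylenol orange complex, using the 573/405 nm absorbance ratio. Enzyme concentration was 150 nM, with 30 min reaction at room temperature.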
% is scaled to controls: 0 for no effect and ±100 for the full control effect; potency is read from the fitted curve at half-maximal effect; tags tell the direction and shape of the fitted curve.
Also: nearly all actives have a fitted effect of over 55% in size.

Potency, active:
C/C(=N\NC(=S)NCCc1ccccc1)c1cccs1 3.98 µM

Potency, inconclusive:
Oc1ccccc1-c1cc(-c2ccc3c(c2)OCCO3)n[nH]1 14.1 µM [inhibitor, partial curve], CC(C)COC(=O)NCC12C=CC(O1)C1C(=O)N(c3ccc(Cl)cc3)C(=O)C12 (stereo unspecified) 11.2 µM [inhibitor, partial curve], COc1cc(C2CC(=O)N3CN(c4ccccc4C)CSC3=C2C#N)cc(OC)c1OC (stereo unspecified) 25.1 µM [inhibitor, partial curve], COc1ccc(-c2[nH]ncc2Oc2ccccc2OC)c(O)c1 15.8 µM [inhibitor, partial curve], O=c1cc(CO)oc(C(Nc2ccccn2)c2cccc(F)c2)c1O (stereo unspecified) 7.08 µM [inhibitor, partial curve], Cc1cccc(C)c1NC(=O)CSCC(=O)c1ccc(O)c(O)c1 1 µM [inhibitor, partial curve], CCN(CC)CCNC(=O)CCCCn1c(=S)[nH]c2c([nH]c3ccc(OC)cc32)c1=O 35.5 µM [inhibitor, single point], COC(=O)c1ccc2c(=O)n(NC(=O)C(c3ccccc3)c3ccccc3)c(=S)[nH]c2c1 1 µM [inhibitor, single point], COc1ccc(N2CSC3=C(C#N)C(c4cccs4)CC(=O)N3C2)cc1 (stereo unspecified) 14.1 µM [inhibitor, partial curve], CCN(CC)CCN1C(=O)c2oc3ccccc3c(=O)c2C1c1ccccc1 (stereo unspecified) 3.16 µM [inhibitor, full curve], Cc1ccc(-c2cc(-c3ccc4c(c3)OCO4)c(C#N)c(N)n2)o1 15.8 µM [inhibitor, partial curve]

Activity change, negative = inhibition, inactive:
COc1ccc(OC)c(-n2nnnc2SCC(=O)Nc2ccc3c(c2)OCCO3)c1 -3.03%, CCN(CC)C(=O)CSc1nnc(-c2ccccn2)n1-c1ccc(C)c(C)c1 -2.67%, CCOc1ncccc1C(=O)NCCN1C(=O)S/C(=C/c2cccs2)C1=O 0.804%, COc1ccc(N2CCN(c3ccc(NC(=O)c4ccc5c(c4)OCO5)cc3C#N)CC2)cc1 -0.809%, CCc1nnc(NC(=O)CCC(=O)NCC2CCCO2)s1 (stereo unspecified) 2.39%, C=CCNc1sc(C(=O)c2cccs2)c(N)c1C#N 0.322%, COc1ccc(C2C(Oc3ccccc3)C(=O)N2c2cc(C)ccc2C)cc1OC (stereo unspecified) -1.39%, Oc1ccc2ccccc2c1Cc1c(O)ccc2ccccc12 -16.2% [at 11.4 µM], CCCCC(CC(O)COCC(C)C)C(=O)NNC(=S)Nc1ccccc1 (stereo unspecified) 0.846%
